This is one part of the list.
B1: PhoQ; a variant is named by its letters at X, in order, P23837 (parent)
chain: MKKLLRLFFPLSLRVRFLLATAAVVLVLSLAYGMVALIGYSVSFDKTTFRLLRGESNLFYTLAKWENNKLHVELPENIDKQSPTMTLIYDENGQLLWAQRDVPWLMKMIQPDWLKSNGFHEIEADVNDTSLLLSGDHSIQQQLQEVREDDDDAEMTHSVAVNVYPATSRMPKLTIVVVDTIPVELKSSYMVWSWFIYVLSANLLLVIPLLWVAAWWSLRPIEALAKEVRELEEHNRELLNPATTRELTSLVRNLNRLLKSERERYDKYRTTLTDLTHSLKTPLXXLQXXLRSLRSEKMSVSDAEPVMLEQISRISQQIGYYLHRASMRGGTLLSRELHPVAPLLDNLTSALNKVYQRKGVNISLDISPEISFVGEQNDFVEVMGNVLDNACKYCLEFVEISARQTDEHLYIVVEDDGPGIPLSKREVIFDRGQRVDTLRPGQGVGLAVAREITEQYEGKIVAGESMLGGARMEVIFGRQHSAPKDE

Variants of: B1
Test: enrichment ratio after two sorts for PhoP signalling (ratio (wild type AVST 3.29)); higher = more functional
Conditions: with PhoP (E. coli)

Row | Variant | enrichment ratio
1 | GIYM | ≤ 0.25
2 | TVDN | ≤ 0.25
3 | KISK | ≤ 0.25
4 | HTSI | ≤ 0.25
5 | SNWH | ≤ 0.25
6 | RNCW | ≤ 0.25
7 | QEVI | ≤ 0.25
8 | IAMG | ≤ 0.25
9 | ITAF | ≤ 0.25
10 | LTFT | ≤ 0.25
11 | ELEP | ≤ 0.25
12 | IHQN | ≤ 0.25
13 | SEHC | ≤ 0.25
14 | QPPS | ≤ 0.25
15 | TYMM | 2.16
16 | RVYR | ≤ 0.25
17 | EYRD | ≤ 0.25
18 | DVCR | ≤ 0.25
19 | PMNW | ≤ 0.25
20 | YMKR | ≤ 0.25
21 | IHFN | ≤ 0.25
22 | GQHD | ≤ 0.25
23 | FQRI | ≤ 0.25
24 | NAIY | ≤ 0.25
25 | VFTD | ≤ 0.25
26 | VNYK | ≤ 0.25

Row | Variant | enrichment ratio
27 | HTSK | ≤ 0.25
28 | KFTH | ≤ 0.25
29 | QSVC | ≤ 0.25
30 | MIQH | ≤ 0.25
31 | HCRF | ≤ 0.25
32 | ASNA | ≤ 0.25
33 | YQVV | ≤ 0.25
34 | RGFC | 2.13
35 | DWYK | ≤ 0.25
36 | VSPK | ≤ 0.25
37 | YDPI | ≤ 0.25
38 | GYDP | ≤ 0.25
39 | YWII | ≤ 0.25
40 | PDRK | ≤ 0.25
41 | LQMM | ≤ 0.25
42 | HDYY | ≤ 0.25
43 | SWCW | ≤ 0.25
44 | RRCN | 0.458
45 | PVVH | ≤ 0.25
46 | RLCQ | ≤ 0.25
47 | FPPW | ≤ 0.25
48 | TYNR | ≤ 0.25
49 | IHPY | ≤ 0.25
50 | KKSG | ≤ 0.25
51 | RLMA | ≤ 0.25
52 | NRVF | ≤ 0.25

Row | Variant | enrichment ratio
53 | YKFH | ≤ 0.25
54 | SIEA | ≤ 0.25
55 | WHPW | ≤ 0.25
56 | ASTH | 6.74
57 | HKFC | ≤ 0.25
58 | PPMK | ≤ 0.25
59 | LHMY | ≤ 0.25
60 | FDHG | ≤ 0.25
61 | HYTT | ≤ 0.25
62 | YCWN | ≤ 0.25
63 | NQIS | ≤ 0.25
64 | TGVA | 10.9
65 | YGIE | ≤ 0.25
66 | GGQG | ≤ 0.25
67 | HPNE | ≤ 0.25
68 | HMCN | ≤ 0.25
69 | WMIW | ≤ 0.25
70 | HFYH | ≤ 0.25
71 | SDWT | ≤ 0.25
72 | MFQA | ≤ 0.25
73 | VAHY | ≤ 0.25
74 | MHIC | ≤ 0.25
75 | TSEF | ≤ 0.25
76 | STTP | ≤ 0.25
77 | HWYA | ≤ 0.25
78 | LKKG | ≤ 0.25

Row | Variant | enrichment ratio
79 | MASK | ≤ 0.25
80 | WRVI | 0.425
81 | LPSH | ≤ 0.25
82 | AETR | 3.45
83 | RLMY | ≤ 0.25
84 | DKCG | ≤ 0.25
85 | HPSR | ≤ 0.25
86 | HLDM | ≤ 0.25
87 | WACL | ≤ 0.25
88 | SQWV | ≤ 0.25
89 | IHGH | ≤ 0.25
90 | PQGW | ≤ 0.25
91 | NGLN | ≤ 0.25
92 | KRPG | ≤ 0.25
93 | KRYF | ≤ 0.25
94 | PYPH | ≤ 0.25
95 | WFHQ | ≤ 0.25
96 | DCTV | ≤ 0.25
97 | KMQP | ≤ 0.25
98 | SPLG | ≤ 0.25
99 | SHDD | ≤ 0.25
100 | RFFH | ≤ 0.25
101 | VMCN | ≤ 0.25
102 | NFDL | ≤ 0.25
103 | IQTK | ≤ 0.25
104 | VVPI | ≤ 0.25

Row | Variant | enrichment ratio
105 | LSTH | ≤ 0.25
106 | VMDP | ≤ 0.25
107 | QVDY | 11.3
108 | QAWE | ≤ 0.25
109 | YMVN | ≤ 0.25
110 | WCLA | ≤ 0.25
111 | GRIN | ≤ 0.25
112 | HIVW | ≤ 0.25
113 | VIGR | 0.325
114 | FDLE | ≤ 0.25
115 | SGHW | ≤ 0.25
116 | PFYT | ≤ 0.25
117 | GAEP | ≤ 0.25
118 | KAHM | ≤ 0.25
119 | LQDR | ≤ 0.25
120 | WIFC | ≤ 0.25
121 | MHIH | ≤ 0.25
122 | AHCN | ≤ 0.25
123 | YSKA | 0.403
124 | MSIT | ≤ 0.25
125 | DEWL | ≤ 0.25
126 | IDGN | ≤ 0.25
127 | DHFM | ≤ 0.25
128 | MMPD | ≤ 0.25
129 | IRDF | ≤ 0.25
130 | PKWS | ≤ 0.25

Row | Variant | enrichment ratio
131 | CAIN | ≤ 0.25
132 | SWPV | ≤ 0.25
133 | MTFT | 0.756
134 | VYPC | ≤ 0.25
135 | SRWH | ≤ 0.25
136 | RETY | ≤ 0.25
137 | SYQL | ≤ 0.25
138 | IFVH | ≤ 0.25
139 | EPPN | ≤ 0.25
140 | WNNN | ≤ 0.25
141 | WEPM | ≤ 0.25
142 | VNMT | 3.14
143 | NQRR | ≤ 0.25
144 | KSYG | ≤ 0.25
145 | FIMY | ≤ 0.25
146 | HWHD | ≤ 0.25
147 | YTDG | ≤ 0.25
148 | FKMW | ≤ 0.25
149 | VCIN | ≤ 0.25
150 | RLVI | ≤ 0.25
151 | VFDM | ≤ 0.25
152 | GLTG | 1.09
153 | FDGY | ≤ 0.25

From a collection of fitness landscapes (doi:10.1126/science.1257360)
